# In a collection of fitness landscapes (doi:10.1016/j.celrep.2020.107928):
# Over roughly 81,000 sequences, “one-hybrid fitness for binding parS DNA” has its median near -0.17; the highest 2% begin near 0.51. Some of the results follow.
# B1: Caulobacter ParB omega fusion; a variant is named by its letters at X, in order, B8GW30 (parent)
# chain: MESVVVGEPGMSEGRRGLGRGLSALLGEVDAAPAQAPGEQLGGSREAPIEILQRNPDQPRRTFREEDLEDLSNSIREKGVLQPILVRPSPDTAGEYQIVAGERAWRAAQRAGLKTVPIMVRELDDLAVLEIGIIENVQRADLNVLEEALSYKVLMEKFERTQENIAQTIGKSXSHVANXMRLLXLPDEVQSYLVSGELTAXHARAIAAAADPVALAKQIIEGGLSVRETEALARKAPNLSAGKSKGGRPPRVKDTDTQALESDLSSVLGLDVSIDHRGSTGTLTITYATLEQLDDLCNRLTRGI
# Variants of: B1
# Assay: one-hybrid fitness for binding parS DNA (scaled: cognate 1, non-cognate 0); higher = stronger binding
# Details: with parS DNA site
# How it was run: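 In E. coli USO, a HIS3 reporter with its site placed 19 bp from the promoter was used to select Caulobacter ParB variants randomised at four specificity codons. Growth lasted 48 hours at 37°C on histidine-free M9 containing 0.1 mM IPTG and 5 mM 3-AT. Fitness was taken as the log change in variant-to-wild-type read ratio from Illumina sequencing of pre- and post-selection plasmids, rescaled between the non-cognate and cognate sites.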
row,Variant,one-hybrid fitness for binding parS DNA
1,EHRS,≤ 0.2
2,CVTH,≤ 0.2
3,KTAA,≤ 0.2
4,VTPA,≤ 0.2
5,RHAS,0.933
6,TQSI,≤ 0.2
7,TKYT,≤ 0.2
8,YSAF,≤ 0.2
9,MAGV,≤ 0.2
10,KNYS,≤ 0.2
11,QDFW,≤ 0.2
12,APLM,≤ 0.2
13,TCLG,≤ 0.2
14,LHSP,≤ 0.2
15,DWWS,≤ 0.2
16,ALAL,≤ 0.2
17,WWTG,≤ 0.2
18,KRTW,≤ 0.2
19,ILMY,≤ 0.2
20,CRIT,≤ 0.2
21,RWKR,≤ 0.2

row,Variant,one-hybrid fitness for binding parS DNA
1,TAHR,≤ 0.2
2,YLPT,≤ 0.2
3,YLIN,≤ 0.2
4,PICR,≤ 0.2
5,RVHR,≤ 0.2
6,IHQG,≤ 0.2
7,PAMF,≤ 0.2
8,RFMA,0.504
9,HIAG,≤ 0.2
10,NPNG,≤ 0.2
11,HFDS,≤ 0.2
12,QFTH,≤ 0.2
13,GSSG,≤ 0.2
14,YFAT,≤ 0.2
15,GIKT,≤ 0.2
16,VHPA,≤ 0.2
17,QWPG,≤ 0.2
18,QQYS,≤ 0.2
19,HGVD,≤ 0.2
20,RCVH,≤ 0.2
21,RRHF,≤ 0.2

row,Variant,one-hybrid fitness for binding parS DNA
1,PRNT,≤ 0.2
2,TCTG,≤ 0.2
3,HKEK,0.24
4,NMNI,≤ 0.2
5,INLW,≤ 0.2
6,YTAV,≤ 0.2
7,KIVS,≤ 0.2
8,FVHS,≤ 0.2
9,RALV,≤ 0.2
10,AVFW,0.23
11,LQAG,≤ 0.2
12,DGMS,≤ 0.2
13,NQRA,≤ 0.2
14,APPH,≤ 0.2
15,RYMR,≤ 0.2
16,WWMC,≤ 0.2
17,MNYN,≤ 0.2
18,TDEC,≤ 0.2
19,QAVE,≤ 0.2
20,VPRW,≤ 0.2
21,RTQT,0.925

row,Variant,one-hybrid fitness for binding parS DNA
1,FSWE,≤ 0.2
2,QRGA,≤ 0.2
3,IIQC,≤ 0.2
4,PGYL,≤ 0.2
5,RGQG,0.727
6,NYRI,≤ 0.2
7,IYAS,≤ 0.2
8,NGMS,≤ 0.2
9,GPVC,≤ 0.2
10,VHHV,≤ 0.2
11,QNNV,≤ 0.2
12,PQCL,≤ 0.2
13,RNDR,≤ 0.2
14,KMPN,≤ 0.2
15,ALIM,≤ 0.2
16,VYVV,≤ 0.2
17,EPCS,≤ 0.2
18,PNRC,≤ 0.2
19,TTYP,≤ 0.2
20,QPET,≤ 0.2
21,DLWS,≤ 0.2
